# Laboratory results: the supplement of paper PMC3334620
# Over roughly 33,000 sequences, “E-score (-0.5 to 0.5)” has its median near -0.035; the highest 2% begin near 0.34. Some of the results follow.
# Biological target: T1, Mot3 (UniProt P54785)
# T1 sequence: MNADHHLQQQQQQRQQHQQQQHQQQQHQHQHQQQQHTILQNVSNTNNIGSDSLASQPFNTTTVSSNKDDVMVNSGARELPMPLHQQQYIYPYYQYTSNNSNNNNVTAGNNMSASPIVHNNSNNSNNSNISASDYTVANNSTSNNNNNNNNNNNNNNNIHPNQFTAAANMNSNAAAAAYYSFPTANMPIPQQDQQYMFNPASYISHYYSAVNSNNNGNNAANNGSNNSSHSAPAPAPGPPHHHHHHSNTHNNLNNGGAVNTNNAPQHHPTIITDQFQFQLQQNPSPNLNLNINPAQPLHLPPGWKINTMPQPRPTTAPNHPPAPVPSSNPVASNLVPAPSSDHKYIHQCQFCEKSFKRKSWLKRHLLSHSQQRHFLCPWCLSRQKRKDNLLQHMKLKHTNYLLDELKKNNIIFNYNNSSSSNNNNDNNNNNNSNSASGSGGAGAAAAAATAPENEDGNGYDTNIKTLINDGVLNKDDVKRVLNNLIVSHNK
# Assay: PBM E-score (8-mer binding enrichment) (E-score (-0.5 to 0.5)); higher = stronger / more preferred TF binding; most listed sequences are background and not binding sites
# Conditions: protein concentration: 200 nM; construct: GST-full length
# In short: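 Universal all-10-mer Agilent arrays, double-stranded by primer extension on fresh or once-stripped slides, were probed with about 100-200 nM GST-tagged yeast transcription factors made by PURExpress. Fluorescent anti-GST detected bound protein, and masliner normalised the scans. E-scores from the Universal PBM Analysis Suite were given to each ungapped eight-base word pooled with its reverse complement.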
row,Sequence,PBM E-score
1,CGCCATAA,-0.168
2,GAGAACAC,0.155
3,GAACCACA,-0.0669
4,CGGACGTC,-0.0742
5,GACGTGAC,0.0524
6,ACCCAGAT,-0.269
7,ATAAGTCC,-0.152
8,AGATTTCA,0.132
9,TATTAAGA,-0.0245
10,GTATTTGA,0.0613
11,ATCTATTC,-0.0184
12,GGAGCGAA,-0.211
13,ATGGCATC,-0.162
14,GGGTCACA,-0.318
15,GGGCAGTA,-0.213
16,CGGTACGC,-0.174
17,CGTCGCAC,-0.243
18,ACGGGATG,-0.0366
19,CCTGTTCC,0.134
20,GAAAGCGA,0.0096
21,AACTGCTA,-0.0589
22,CCCAAAGA,-0.0348
23,CAGGTGTC,0.176
24,ACATCCAT,0.163
25,GATCTAGA,-0.25

row,Sequence,PBM E-score
1,AACTAAGA,0.0799
2,AGCCTCTG,-0.338
3,ATCTTGTA,0.286
4,TACGGACA,-0.00084
5,AGAATGTC,0.0807
6,GACAGTGA,-0.0351
7,ACACAATA,0.259
8,TAAGCCAA,0.00611
9,TACACGCA,0.346
10,CTCGGTCA,-0.0339
11,AAGTGATC,-0.0544
12,ATATTGGA,0.0164
13,TCAGGAAA,0.394
14,CCGAGCCA,-0.204
15,TAGTGGGA,-0.112
16,ACCCGGGG,-0.176
17,GATTACGC,0.23
18,GCGAGAGC,-0.152
19,AATTTAAT,0.162
20,AGCGAAAG,-0.111
21,AGACAATA,0.00367
22,CATTATCA,0.0439
23,ACCGCTAA,0.038
24,CGAAAGAG,-0.0479
25,TAGTATGA,0.0188

row,Sequence,PBM E-score
1,CAAATGCA,0.0602
2,AATTTGCT,-0.00694
3,GCAAATGA,0.0824
4,ACATAGGT,0.282
5,GCATCATA,0.134
6,GACCAACA,0.2
7,ATAGAAGA,0.0613
8,AGAGCCCC,-0.319
9,CCACATAC,0.088
10,ACACTTGA,-0.0599
11,GAAAGTAC,0.148
12,TCATAGAA,0.0896
13,GACGATAC,-0.00304
14,ACACACCA,0.31
15,GTAGACGA,0.0444
16,AGAGCGAG,-0.287
17,CCTACGCC,-0.0194
18,ATCACGCC,-0.058
19,CTAGAGGC,0.0525
20,GTGCCGGA,-0.187
21,CCGTCTCG,-0.0935
22,GAGTAAGA,0.125
23,GGACGGGA,-0.218
24,AACCACTA,0.0837
25,GCTTAACC,0.133

row,Sequence,PBM E-score
1,AGTGCAGC,-0.254
2,ACGATCGA,-0.0256
3,GTTCCTGA,0.428
4,AATATGAT,0.00576
5,AGTGACGC,-0.199
6,CGCTTTTA,0.0891
7,ATCACGGC,-0.0339
8,TACTGCAA,-0.0418
9,ACCTGGAG,0.0144
10,AACTTGCT,0.0474
11,TATTCCGA,-0.0677
12,ATTACGTC,0.269
13,CGCATAAC,0.00678
14,AACAAGGC,0.29
15,CACGATTC,0.065
16,GCTCGACA,-0.0507
17,CAGGCCTC,-0.252
18,GACTTCCC,-0.0179
19,CGAAACAC,0.102
20,ACAAGTCA,0.0709
21,CTGTCGGA,-0.115
22,AACATGGG,0.282
23,GGCATAAC,0.105
24,AGATGCTA,-0.0898
25,ACACGTGG,0.236

row,Sequence,PBM E-score
1,ATGACAGG,-0.00954
2,AAATGCAT,-0.0946
3,TGCAGGCA,0.484
4,CCAATCGC,-0.146
5,AGCAAGGC,0.15
6,ACCCTTGG,-0.167
7,TCCAGCCA,-0.148
8,TACAGTGA,0.0925
9,AATACAAA,0.244
10,ACGCGGTG,0.171
11,GAAGATGC,-0.166
12,AAGGGCTG,-0.256
13,CCGATATC,-0.159
14,GAACCTAA,0.0513
15,GGAGGGAA,-0.19
16,CGCCAAAC,-0.165
17,CCTATACC,-0.054
18,AGATTGGA,-0.0717
19,GGCGATCA,-0.127
20,CAGACAGG,-0.0992
21,AGGACGAA,-0.113
22,AATGCCGT,0.0189
23,TAAAGCAA,0.0809
24,CATTGCAA,0.0174
25,CTCGCCCA,-0.196

row,Sequence,PBM E-score
1,TGCAGCCA,-0.192
2,AGCCTTCA,0.157
3,CTAGTGAC,0.0128
4,CGCAGTAG,-0.179
5,CATGAGCC,0.137
6,ATTGGGGA,-0.228
7,AATCACTA,0.057
8,CCATAGCG,-0.285
9,ATTGTCCG,-0.0544
10,AATTGCCA,-0.0186
11,GGTACAAA,0.202
12,CTCGATGA,-0.0886
13,AACACCTC,-0.105
14,CGCATCGA,-0.0785
15,AGCCAGCT,-0.0592
16,TATCACCA,0.0489
17,GTGTCAAC,0.206
18,AGAATTTG,-0.172
19,AAAGCTGG,-0.162
20,GCTCCGTA,-0.141
21,CATTCAAA,0.0266
22,AGCTCCCG,-0.195
23,ATATATAC,0.238
24,GTAGGAAA,0.429
25,TATATCCA,0.00446

row,Sequence,PBM E-score
1,AACCAGGG,0.18
2,ATGCAACA,0.0771
3,CACAGTCG,-0.0968
4,AATTGTCT,0.0727
5,AGGGTTGG,-0.145
6,CAATTTTA,0.0555
7,TACCGATA,-0.225
8,AACCCAGC,-0.152
9,GCCTATAA,0.33
10,GCGGACAC,-0.3
11,CAACCCCG,-0.231
12,CGAACTCC,0.111
13,GCCTCAGA,-0.0614
14,GCGGCGTA,-0.0503
15,AACCCCAC,0.0413
16,GACTCCCC,-0.294
17,AACCCCAT,0.0292
18,CAAGCACG,0.204
19,TCTTCCCA,-0.0496
20,CGCTAGCG,-0.207
21,CAGGGGTA,-0.221
22,AACCTTGT,0.082
